The subject of one assay is UACC-257 melanoma. Nature of the assay: NCI-60 one-dose screen, 48 h (100 = growth as untreated, 0 = no growth, -100 = all killed).
The next assay relates to SK-MEL-2 melanoma. Described as above. As to conditions: 0.25 µM.

Some structures have more than one record in an assay (separate samples or runs), and their calls can disagree.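 Step 1: grow cells in 96-well plates. Step 2: add test compound at a single concentration. Step 3: incubate 48 h. Step 4: record percent growth.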 Certain results were filed several times, with different values. This is not the full list of results. An entry can have further records. For part of these data: The screen tested this drug many times, at the concentration stated with the values; each value is one run. Additions like (4×) say how often a value occurs here. Some values that stand alone complete this part of the results. Activity calls are given as the source filed them. Rule for the calls: active = growth percent below 10; inactive = the rest.

`COc1cccc2c1C(=O)c1c(O)c3c(c(O)c1C2=O)C[C@@](O)(C(=O)CO)C[C@@H]3OC1CC(N)C(O)C(C)O1` (stereo not given in full): the growth entry with UACC-257 melanoma (0.25 µM, runs of 2021) is “inactive: 51.8, 54.3 (2×), 48.1, 46.4, 48.2, 49, 59.3, 50.6, 40.5, 43.9, 43, 46.2, 48.7 (2×), 51.9 (2×), 57.8, 53.5, 43.6, 44.5 (2×), 46.5, 42.1, 42.8 (2×), 47.4, 47.6, 39.4, 55.3, 56.4, 55.4, 49.4, 56.5, 56.9, 48.5, 45.2, 62.2, 54.4, 61.1, 67.8, 41.7, 45, 35.9, 20.9, 34.7, 55.9, 32.2, 31.9, 43.8, 46.7%”; with UACC-257 melanoma (0.25 µM, runs of 2022), “active: -32.4%, -29.2%, -27.3% and inactive: 34.7, 35.8, 44.7, 11.4, 39.4, 41.2, 48.2, 31.2, 50.2, 62.8, 45.6, 42.7, 39.3, 28.6, 72.6, 83.2, 41.5, 80.4, 74.4, 79.4, 50.9, 52.3, 42.9, 41.8%”; in the assay on UACC-257 melanoma (25 µM, runs of 1991), “active: -62, -76.4, -60, -58.6, -71.3, -78.8, -53.6, -83.1 (2×), -70.9, -48.2, -37, -44.2, -89.3, -71.1, -58.5, -80.5% and inactive: 11.4%”; in the assay on UACC-257 melanoma (25 µM, runs of 1992), “active: -71.8, -49.2, -53.6, -44.9, -8.88, -88.9, -68.6, -59.2, -85.6, -75.9, -44.7 (2×), -46.3, -43.2, -5.66, -27.2, -63.8, -49, -59.8 (2×), -62.6, -56.7, -74.3, -40.1 (2×), -83.4, -89, -24.4, -45.2, -32.1, -14.5, -18.1, -35.6, -0.964, -29.3, -71.1, -76.4, -73.5, -60.1, -72.9, -64.8, -89.8, -71.5, -53.4, -31.5, -49.4, -63.6, -20.4, 6.6, -15.1, -13.4, -73, -77.3, -85.1, -87.1, -80.6, -77.4, -15, -26.6, -38.7, -29.7, -20.5, -14.3, -62.1 (2×), -85.3, -67, -77.1, -86.7, -42.6, -74.6, -79.2, -48.1, -22.9, 1.15, -45.4, -30.5, -80.9, -33.3, -95.9, -81.6 (2×), -79.4, -83.2, -92, -30.2, 7.05, -34.6, -16.3, -63.7, -78.8, -60.5, -25.4, -52.3, -27.9, -23.8, -64.6, -69.6, -71.9, -54.3, -56.8, -31.7, -25.3, -28.3, -77, -60.3, -61.7, -60.6, -27.6, -64.9, -29.2, -33.4, -74.2, -72.5, -36.3, -21.8, -54.4%”; in the assay on UACC-257 melanoma (25 µM, runs of 1993), “active: -72.8, -36.5, -34.8, -61.4, -80.2, -19.6, -49.4, -56.5 (2×), -76.2, -58.7, -61.2, -30.8, -49.6, -52.6, -60.1, -39.2, -50.5, -88.3, -86.6, -75.9, 9.76, -60.6, -53.1, -78.8, -61.7, -69.2, -25.1, -71.6, -54.4, -76.5, -83.1, -78.4, -66.3, -85.9, -89, -14.8, -85.1, -44.4, -63.9, -92, -78.5, -53.2, -95.6, -70%”; in the assay on UACC-257 melanoma (25 µM, runs of 1994), “active: -16.9, -46.2, -75, -65.9, -79.9, -93.5, -46.4, -73.5, -73.2, -89.4, -47.4, -30.2, -57.7, -72.6, -77.6, -50.3, -84.4, -49.8, -52, -57.1, -71.3, -67.9, -82.1, -81.4, -70.5, -52.5, -10.5, -74, -61.9, -52.1, -85.5, -46.1, -24.8% and inactive: 97.6%”. Also, the growth result in the assay with UACC-257 melanoma (25 µM, runs of 1995) is “active: -32.5, -42.6, -56, -14.9, -59.8, -42.1, -76.8, -24.1, -47.2, -64.4, -82.3, -50.8, -30.4, -91.7, -83.4, -30.1, -45.6, -65, -69.1, -80.3, -93.1, -95.9, -64.5, -59.9, -42.3, -83, -38.3, -64.7, -46.7, -55.4, -69, -69.6, -45.3, -68.2, -84, -78.9, -60, -63.4, -48.9, -57.7, -79.1%”; in the assay with UACC-257 melanoma (25 µM, runs of 1996) it was “active: -56.4 (2×), 8.78, -53.1, -8.68, -53.6, -48.2, -24.1, -3.97, -83.8, -9.58, 1.24, -20.7, -24.6, -20.6, -11, -38.8, -20, -16.8, -12.2, -19.4, -1.39, -23.2, -61.8, -40.1, -20.1, -4.15, -42.4, -59, -68.7, -74, -72.8, -32.4, -20.5, -32.8, -73.1, -61.3, -51.2, -34.7, -16.5, -15.1, 7.56, -21.1, -26.2, -43.8, -37, -44.4, -37.5, -63.8, -23.9, -48.7, -56.7, -35.8, -48.4, -53.3% and inactive: 41.2%”; in the assay on UACC-257 melanoma (25 µM, runs of 1997), “active: -56.4, -80.8, -53.8, -29.9, -51.6, -16.7, -39.5, -63, -21.1, -69.5, -64.4, -68.9, -47.1, -38.9, -68.4, -67.8, -35.9, -66.4, -58.4, -52.7, -61.2, -75.8, -33.1, -65.2, -50.5, -41.2, -84.6, -85.5, -61.5, -53.3, -59.3, -27.2, -13.3, -11.1, -29.1, -84, -48.1, -49.8, -70.3, -58, -18.4, -6.5, -13.1, -18.5%”; in the assay on UACC-257 melanoma (25 µM, runs of 1998), “active: -31.1 (2×), -41.3, -1.11, -62.8, -8.44, -29.7, -27, 7.28, -37.3, -19.3, -24.1, 5.36, -17.6, -48.5, -51.6, -38.1, -60.4, -17.7, -35.8, -23.1, -49.1% and inactive: 18.8%, 25.2%”; in the assay with UACC-257 melanoma (25 µM, runs of 1999), “active: -60.4, -46.8, -52.3, -51.4, 6.7, -100 (3×), -95.7, -72, -31.2, -90.4, -48.4, 0.465, -94.4, -52.8, -99.5%”; in the assay on UACC-257 melanoma (25 µM, runs of 2000), “active: -100% (2×), -45.2%, -94.2%”. Further, the growth in the assay on SK-MEL-2 melanoma (runs of 2006) was inactive: 62.8%; in the assay with SK-MEL-2 melanoma (runs of 2007), “inactive: 62.4, 71.3, 69.5, 46.7, 67.7, 44.5 (2×), 75.6, 79.8, 57.9, 63.1, 78.7, 63.5, 78.3, 66.7, 72.9, 75.3, 79.2, 72.6, 78.4, 47.4, 35.1, 40.2, 77.1, 61.5, 82.9, 61.4, 67.1, 26.5, 68.8, 51.3, 37, 33.4, 114, 92.5, 70.6, 64.7, 56.5, 57, 63.2%”; in the assay on SK-MEL-2 melanoma (runs of 2008), “inactive: 53.6, 46.7, 52.8, 45.7, 65.4, 79.4, 73.5 (2×), 60.5, 81, 60, 71.5, 69.7, 84.4 (2×), 19.3, 62.4, 40.3, 47.3, 37.2, 44.6, 39.4, 16.9, 41.5, 63.6, 97.6, 61.6, 30.4 (2×), 63.7, 29.3, 49.5, 48.4, 26.6, 41.8, 31.1, 60.8, 65.3, 60.1, 59.2, 80.8, 76.3, 36.2, 55.3, 41, 54.3, 44.1, 34.7% and active: 5.47%, -0.229%”.

(Values after PubChem BioAssay (NCI).)
